From the supplement of paper PMC8728848
Some of the results follow.

Legend:
Test in all cases: glycan array binding signal (z-score within array); higher = stronger binding
Settings in all cases: glycan notation: IUPAC condensed, linker removed
Gal3S(b1-4)Glc = molecular target: Gal3S(b1-4)Glc
Method in brief: (§1)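 From the Consortium for Functional Glycomics database, 3228 arrays were curated, keeping only those whose protein sequence was available. Binding is given as a within-array Z-score averaged across arrays sharing a protein sequence and across linkers. Negative Z-scores can be read as non-binding.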

Gal3S(b1-4)Glc6S = molecular target: Gal3S(b1-4)Glc6S
Method in brief: as §1

Gal3S(b1-4)GlcNAc = molecular target: Gal3S(b1-4)GlcNAc
Method in brief: as §1

[1] = molecular target: Gal3S(b1-4)[Fuc(a1-3)]Glc6S
Method in brief: as §1

[2] = molecular target: Gal3S(b1-4)[Fuc(a1-3)]GlcNAc
Method in brief: as §1

[3] = molecular target: Gal3S(b1-4)[Fuc(a1-3)]GlcNAc6S
Method in brief: as §1

Gal3S4S(b1-4)GlcNAc = molecular target: Gal3S4S(b1-4)GlcNAc
Method in brief: as §1

Gal3S6S(b1-4)GlcNAc = molecular target: Gal3S6S(b1-4)GlcNAc
Method in brief: as §1

Gal3S6S(b1-4)GlcNAc6S = molecular target: Gal3S6S(b1-4)GlcNAc6S
Method in brief: as §1

Gal4S(b1-4)GlcNAc = molecular target: Gal4S(b1-4)GlcNAc
Method in brief: as §1

Gal4S6S(b1-4)GlcNAc = molecular target: Gal4S6S(b1-4)GlcNAc
Method in brief: as §1

Gal6P(b1-4)GlcNAc = molecular target: Gal6P(b1-4)GlcNAc
Method in brief: as §1

Gal6S(b1-3)GlcNAc = molecular target: Gal6S(b1-3)GlcNAc
Method in brief: as §1

Gal6S(b1-3)GlcNAc6S = molecular target: Gal6S(b1-3)GlcNAc6S
Method in brief: as §1

Gal6S(b1-4)Glc = molecular target: Gal6S(b1-4)Glc
Method in brief: as §1

Gal6S(b1-4)Glc6S = molecular target: Gal6S(b1-4)Glc6S
Method in brief: as §1

Gal6S(b1-4)GlcNAc = molecular target: Gal6S(b1-4)GlcNAc
Method in brief: as §1

Gal6S(b1-4)GlcNAc6S = molecular target: Gal6S(b1-4)GlcNAc6S
Method in brief: as §1

GalNAc(a1-3)Gal = molecular target: GalNAc(a1-3)Gal
Method in brief: as §1

GalNAc(a1-3)GalNAc = molecular target: GalNAc(a1-3)GalNAc
Method in brief: as §1

[4] = molecular target: GalNAc(a1-3)GalNAc(b1-3)Gal(a1-4)Gal(b1-4)Glc
Method in brief: as §1

[5] = molecular target: GalNAc(a1-3)GalNAc(b1-3)Gal(a1-4)Gal(b1-4)GlcNAc
Method in brief: as §1

GalNAc(b1-3)Gal = molecular target: GalNAc(b1-3)Gal
Method in brief: as §1

[6] = molecular target: GalNAc(b1-3)Gal(a1-4)Gal(b1-4)GlcNAc
Method in brief: as §1

[7] = molecular target: GalNAc(b1-3)Gal(a1-4)Gal(b1-4)GlcNAc(b1-3)Gal(b1-4)Glc
Method in brief: as §1

[8] = molecular target: GalNAc(b1-3)Gal(a1-6)Gal(b1-4)Glc
Method in brief: as §1

GalNAc(b1-3)GalNAc = molecular target: GalNAc(b1-3)GalNAc
Method in brief: as §1

GalNAc(b1-3)GlcNAc = molecular target: GalNAc(b1-3)GlcNAc
Method in brief: as §1

GalNAc(b1-4)Gal(b1-4)Glc = molecular target: GalNAc(b1-4)Gal(b1-4)Glc
Method in brief: as §1

GalNAc(b1-4)GlcNAc = molecular target: GalNAc(b1-4)GlcNAc
Method in brief: as §1

[9] = molecular target: GalNAc(b1-4)GlcNAc(b1-2)Man
Method in brief: as §1

[10] = molecular target: GalNAc(b1-4)GlcNAc(b1-2)Man(a1-3)[GalNAc(b1-4)GlcNAc(b1-2)Man(a1-6)]Man(b1-4)GlcNAc(b1-4)GlcNAc
Method in brief: as §1

[11] = molecular target: GalNAc(b1-4)GlcNAc(b1-3)GalNAc(b1-4)GlcNAc
Method in brief: as §1

GalNAc(b1-4)GlcNAc6S = molecular target: GalNAc(b1-4)GlcNAc6S
Method in brief: as §1

GalNAc(b1-6)GalNAc = molecular target: GalNAc(b1-6)GalNAc
Method in brief: as §1

GalNAc3S(b1-4)GlcNAc = molecular target: GalNAc3S(b1-4)GlcNAc
Method in brief: as §1

GalNAc3S(b1-4)GlcNAc3S = molecular target: GalNAc3S(b1-4)GlcNAc3S
Method in brief: as §1

[12] = molecular target: GalNAc3S(b1-4)[Fuc(a1-3)]GlcNAc
Method in brief: as §1

GalNAc4S6S(b1-4)GlcNAc = molecular target: GalNAc4S6S(b1-4)GlcNAc
Method in brief: as §1

GalNAc6S(b1-4)GlcNAc = molecular target: GalNAc6S(b1-4)GlcNAc
Method in brief: as §1

Glc(a1-4)Glc = molecular target: Glc(a1-4)Glc
Method in brief: as §1

[13] = molecular target: Glc(a1-4)Glc(a1-4)Glc(a1-4)Glc
Method in brief: as §1

Glc(a1-6)Glc(a1-6)Glc = molecular target: Glc(a1-6)Glc(a1-6)Glc
Method in brief: as §1

[14] = molecular target: Glc(a1-6)Glc(a1-6)Glc(a1-6)Glc
Method in brief: as §1

Glc(b1-4)Glc = molecular target: Glc(b1-4)Glc
Method in brief: as §1

B1: PX14375l-pdi-526-25-526 (Parabacteroides distasonis) (protein)
chain: DEEPKSTLTDVAYYKTQSQMESNVNYLYRTGAIGSYVDFGSAYIGPFASIQEELTGYFSNSYEGQEIVCRYTRELTRQQNTMQLASKMDKVWDDCYRGINVANGAIKHMPEVPMDQATADRLTAEAKFFRAFNYFYLVKTFGAVPFYTDPYELAENMELPRTETSTIYNQIESDLKDAMNVLPEATFAANGHRITKYVAAMTLTDVYMYQHKYAEAAETVRIVVNSNHKLTTNDDLAMNSAFNKLRSTDDLDEAIYAYEYDNQISPSNWLPTYAFDGDASSNGLFGTYAITQKVHGPNDRYLNIYESNDLRRQPNQFYHWTYTNPKTGKVWNSVGNAACCWYYYDEDALLTTGRGTKDWNVYRYAEALLDAAESIAQSTGVTAEAAGYLAQVKARANMEGKTAAEIASSLQSMGKQAFIEECWTERLRELPLEFKMWDMCVRTGMFPNISETTPGQVTYIPLVGAKNASGATIKESDLLWPLSVNEIQRNPSLTQNEGYSAK
- glycan array binding signal (z-score) (Gal3S(b1-4)Glc): 0.572
- glycan array binding signal (z-score) (Gal3S(b1-4)Glc6S): -0.056
- glycan array binding signal (z-score) (Gal3S(b1-4)GlcNAc): -0.224
- glycan array binding signal (z-score) [1]: -0.014
- glycan array binding signal (z-score) [2]: -0.043
- glycan array binding signal (z-score) [3]: -0.125
- glycan array binding signal (z-score) (Gal3S4S(b1-4)GlcNAc): -0.164
- glycan array binding signal (z-score) (Gal3S6S(b1-4)GlcNAc): 0.009
- glycan array binding signal (z-score) (Gal3S6S(b1-4)GlcNAc6S): -0.107
- glycan array binding signal (z-score) (Gal4S(b1-4)GlcNAc): 0
- glycan array binding signal (z-score) (Gal4S6S(b1-4)GlcNAc): -0.144
- glycan array binding signal (z-score) (Gal6P(b1-4)GlcNAc): 0.101
- glycan array binding signal (z-score) (Gal6S(b1-3)GlcNAc): -0.207
- glycan array binding signal (z-score) (Gal6S(b1-3)GlcNAc6S): 9.53
- glycan array binding signal (z-score) (Gal6S(b1-4)Glc): -0.134
- glycan array binding signal (z-score) (Gal6S(b1-4)Glc6S): -0.213
- glycan array binding signal (z-score) (Gal6S(b1-4)GlcNAc): -0.026
- glycan array binding signal (z-score) (Gal6S(b1-4)GlcNAc6S): 0.054
- glycan array binding signal (z-score) (GalNAc(a1-3)Gal): 0.039
- glycan array binding signal (z-score) (GalNAc(a1-3)GalNAc): -0.431
- glycan array binding signal (z-score) [4]: -0.057
- glycan array binding signal (z-score) [5]: -0.248
- glycan array binding signal (z-score) (GalNAc(b1-3)Gal): -0.03
- glycan array binding signal (z-score) [6]: -0.17
- glycan array binding signal (z-score) [7]: -0.043
- glycan array binding signal (z-score) [8]: -0.016
- glycan array binding signal (z-score) (GalNAc(b1-3)GalNAc): 0.156
- glycan array binding signal (z-score) (GalNAc(b1-3)GlcNAc): -0.388
- glycan array binding signal (z-score) (GalNAc(b1-4)Gal(b1-4)Glc): -0.159
- glycan array binding signal (z-score) (GalNAc(b1-4)GlcNAc): 0.06
- glycan array binding signal (z-score) [9]: -0.183
- glycan array binding signal (z-score) [10]: -0.068
- glycan array binding signal (z-score) [11]: -0.222
- glycan array binding signal (z-score) (GalNAc(b1-4)GlcNAc6S): -0.255
- glycan array binding signal (z-score) (GalNAc(b1-6)GalNAc): -0.108
- glycan array binding signal (z-score) (GalNAc3S(b1-4)GlcNAc): -0.071
- glycan array binding signal (z-score) (GalNAc3S(b1-4)GlcNAc3S): -0.263
- glycan array binding signal (z-score) [12]: -0.273
- glycan array binding signal (z-score) (GalNAc4S6S(b1-4)GlcNAc): -0.138
- glycan array binding signal (z-score) (GalNAc6S(b1-4)GlcNAc): -0.256
- glycan array binding signal (z-score) (Glc(a1-4)Glc): -0.264
- glycan array binding signal (z-score) [13]: -0.319
- glycan array binding signal (z-score) (Glc(a1-6)Glc(a1-6)Glc): -0.259
- glycan array binding signal (z-score) [14]: -0.058
- glycan array binding signal (z-score) (Glc(b1-4)Glc): -0.069
